About 530 (0.13%) of roughly 410,000 compounds were called active. The inconclusive results got no clear call from the source; some entries with a clear call stand among them for comparison. Calls follow the shape of the dose curve; as a rule, active = well fitted inhibition curve with a large enough effect; inconclusive = small, poorly fitted or top-dose-only effect, or another doubt; inactive = no such curve, though single readings can be large or run the other way. Potencies beside an inconclusive call are fits to weak or partial responses and may not hold up.
Experiment: qHTS of GLP-1 Receptor Inverse Agonists: Cytotox Screen
Details: HEK293 cAMP-luciferase reporter cells, luminescence, 24 h; activity change, negative = inhibition: at 38.3 µM (top of the series) unless noted
Method in brief: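 A 23 nL compound transfer followed 12 hours of cell culture at 37 deg C; exposure then lasted 24 hr. Luciferase assay detection reagent was dispensed and plates read for luminescence after a 12 min room-temperature wait.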
% is scaled to controls: 0 for no effect and ±100 for the full control effect; potency is read from the fitted curve at half-maximal effect.

Row | Compound | Potency | activity change, negative = inhibition
1 | COc1ccc(/C=C2\COc3ccccc3C2=O)cc1OC | inconclusive: 22.4 µM [inhibitor, partial curve, poor fit] | 
2 | COC(=O)\C(C(C)=O)=C(/C=C/C=C/N(C)C)N(C)C | inconclusive: 10 µM [inhibitor, partial curve] | 
3 | CC(=O)Nc1ccc(C=CC=Cc2cccc([N+](=O)[O-])c2)cc1 | inconclusive: 11.2 µM [inhibitor, partial curve, poor fit] | 
4 | N#CSCC(=O)c1cccc2ccccc12 | inconclusive: 28.2 µM [inhibitor, single point] | 
5 | CCOC(=O)N1CCN(CC(=O)Nc2sccc2C#N)CC1 | inconclusive: 2.24 µM [inhibitor, full curve] | 
6 | CCCCc1nn2c(=O)cc(COC(=O)c3cccc(NC(=O)c4cccc(Cl)c4)c3)nc2s1 | inactive | 
7 | COc1cc(OC)cc(C(=O)NCC(=O)N2CC=C(c3ccccc3)CC2)c1 | inconclusive: 0.891 µM [inhibitor, full curve, poor fit] | 
8 | Cc1c(CCOC(=O)c2ccc(N3CCOCC3)c([N+](=O)[O-])c2)sc[n+]1CC#N | inconclusive: 28.2 µM [inhibitor, single point] | 
9 | CCC(CC)NC(=O)COn1nnc2ccc(S(=O)(=O)N3CCOCC3)cc21 | inactive | 
10 | Cc1cc(NC(=O)CSc2c3c(nc4ccccc24)CCC3)no1 | inconclusive: 8.91 µM [inhibitor, partial curve] | 
11 | C=C(C)C1CC=C(C)/C(=N\NC(=S)Nc2ccc(C)cc2)C1 (stereo not drawn) | inconclusive: 4.47 µM [inhibitor, full curve] | 
12 | C=CCn1cc(-c2ccccc2)cc(C#N)c1=O | inactive | 
13 | CCc1ccc(C2CC(=O)c3c([nH]c(C(=O)OC4CCC(C)CC4)c3C)C2)cc1 (stereo not drawn) | inactive | 
14 | CCCCCCNC(=O)O[C@H]1Cn2c(=O)ccc(=O)n2[C@@H]2CN(S(=O)(=O)c3ccc(C)cc3)C[C@]12O | inconclusive: 20 µM [inhibitor, single point] | 
15 | COC(=O)c1ccc(COc2ccccc2/C=C(\C#N)C(=O)Nc2c(C)cccc2C)cc1 | inconclusive: 14.1 µM [inhibitor, single point] | 
16 | CN(Cc1ccccc1)C(=S)NC(=O)c1ccccc1 | inconclusive: 2.24 µM [inhibitor, full curve, poor fit] | 
17 | COc1ccc(/C=N/NC(=O)Cc2csc(Nc3cccc(C(F)(F)F)c3)n2)cc1C | inconclusive: 28.2 µM [inhibitor, single point] | 
18 | Oc1ccc(C[C@H]2CNC(=S)N2CC2CCCN2C[C@H](Cc2ccc(O)cc2)N2C[C@H](Cc3ccc(O)cc3)N(CC3CCCCCC3)C2=S)cc1 (stereo partly drawn) | inconclusive: 12.6 µM [inhibitor, single point] | 
19 | COc1ccc(-c2cccc(C3CC=CC4C3C(=O)N(Cc3ccccc3)C4c3ccc(OC)c(Cl)c3)c2)cc1 (stereo not drawn) | inconclusive: 28.2 µM [inhibitor, single point] | 
20 | COc1cccc2c1C(=O)c1c(O)c3c(c(O)c1C2=O)C[C@@](O)(C(=O)CO)C[C@@H]3O[C@H]1C[C@H](N)[C@H](O)[C@H](C)O1 | inconclusive: 1.41 µM [inhibitor, full curve, poor fit] | 
21 | COC(=O)c1ccccc1NC(=S)NC(=O)COc1ccc(C(C)C)cc1 | inactive | 

Row | Compound | Potency | activity change, negative = inhibition
22 | O=C(c1cnn2c1NC(c1ccco1)CC2C(F)(F)F)N1CCN(c2cccc(Cl)c2)CC1 (stereo not drawn) | inconclusive: 6.31 µM [inhibitor, partial curve] | 
23 | Cc1ccc(Nc2cc(C)nc(-n3nc(C)cc3C)n2)cc1 | inconclusive: 4.47 µM [inhibitor, partial curve] | 
24 | Cc1ccsc1/C=N/NC(=O)c1ccncc1 | inconclusive: 28.2 µM [inhibitor, single point] | 
25 | Cc1ccc(SCCNC(=S)Nc2ccccc2)cc1 | inconclusive: 12.6 µM [inhibitor, partial curve, poor fit] | 
26 | COc1ccc2nc(NC(=O)c3nc(S(=O)(=O)Cc4ccccc4F)ncc3Cl)sc2c1 | inconclusive: 28.2 µM [inhibitor, single point] | 
27 | CC(=O)Nc1cccc(NC(=O)CSc2ncc(-c3ccc(Cl)cc3)n2Cc2ccco2)c1 | inconclusive: 28.2 µM [inhibitor, single point] | 
28 | Cc1ccccc1OCC(O)Cn1c(=N)n(Cc2ccccc2)c2ccccc21 (stereo not drawn) | inconclusive: 12.6 µM [inhibitor, partial curve, poor fit] | 
29 | COc1ccc(-c2nc3c4ccccc4n(CC(=O)Nc4ccc(C(C)C)cc4)c(=O)n3n2)cc1 | inactive | 
30 | Nc1nn(-c2ccccc2)c(N)c1N=Nc1ccccc1 | inconclusive: 22.4 µM [inhibitor, single point] | 
31 | CC(C)(C)c1ccc(OCCNCc2ccccc2)cc1 | inconclusive: 28.2 µM [inhibitor, single point] | 
32 | CCC1CCCCN1S(=O)(=O)c1ccc(C(=O)Nc2nnc(C3=COCCO3)o2)cc1 (stereo not drawn) | inactive | 
33 | C=CCN(c1ccccc1)S(=O)(=O)c1cccc(C(=O)NCC(c2ccccc2OC)N2CCCC2)c1 (stereo not drawn) | inconclusive: 22.4 µM [inhibitor, single point] | 
34 | O=c1[nH]c(=S)[nH]c2scc(-c3ccc(Br)cc3)c12 | inactive | 
35 | O=C(Cc1ccc(Cl)cc1)Nc1ncc([N+](=O)[O-])s1 | inconclusive: 28.2 µM [inhibitor, single point] | 
36 | COc1cccc(C(=O)Nc2nc3ccccc3[nH]2)c1 | inconclusive: 12.6 µM [inhibitor, partial curve, poor fit] | 
37 | CCc1nc2nc(C)c(NS(=O)(=O)c3ccc(Cl)s3)c(=O)n2[nH]1 | inactive | 
38 | Cc1ccc(NC(=O)c2sc(N)nc2-c2ccc([N+](=O)[O-])cc2)c(C)c1 | inconclusive: 11.2 µM [inhibitor, single point] | 
39 | COc1cc(/C=C/C(=O)c2ccc(C)c([N+](=O)[O-])c2)cc(OC)c1O | inactive | 
40 | C=CCc1c(C)[nH]c2c(OC)cccc2c1=S | inconclusive: 10 µM [inhibitor, single point] | 
41 | CCOC(=O)C1=C(C)Nc2ccccc2N=C1NC(=O)c1cccc(S(=O)(=O)NCc2ccccc2)c1 | inconclusive: 2 µM [inhibitor, full curve, poor fit] | 
42 | CCN(CC)c1cc(C)c2cc(NC(=O)/C=C/c3ccccc3Cl)ccc2n1 | inconclusive: 12.6 µM [inhibitor, single point] | 

Row | Compound | Potency | activity change, negative = inhibition
43 | CN1CCN(C(=S)NC(=O)c2ccc(C(C)(C)C)cc2)CC1 |  | inconclusive: -43% [inhibitor] [at 1.53 µM]
44 | CCN1c2ccccc2-n2cccc2C12CCN(C(=O)Nc1ccccc1Br)CC2 | inactive | 
45 | O=C(NC1CCCc2ccccc21)C1CCCN(S(=O)(=O)c2cnc[nH]2)C1 (stereo not drawn) | inconclusive: 1.12 µM [inhibitor, full curve, poor fit] | 
46 | O=C(c1cccs1)N1CCC(c2nc3c(nnn3Cc3ccccc3Cl)c(=O)[nH]2)CC1 | inconclusive: 12.6 µM [inhibitor, single point] | 
47 | Cc1nc2c(sc(=S)n2Cc2ccco2)c(=O)n1CC(=O)Nc1ccccc1 | inactive | 
48 | O=[N+]([O-])c1ccc(CNc2cccc(Cl)c2)s1 | inconclusive: 22.4 µM [inhibitor, single point] | 
49 | CCCNCc1cc(Br)ccc1OCC(=O)NCCc1ccccc1 | inconclusive: 0.251 µM [inhibitor, full curve, poor fit] | 
50 | CCOC(=O)N1CCN(S(=O)(=O)N2CCCC(C(=O)NCCc3ccccc3)C2)CC1 (stereo not drawn) | inconclusive: 11.2 µM [inhibitor, single point] | 
51 | Cc1cccc(NC(=S)NC(=O)c2cccs2)n1 | inconclusive: 5.62 µM [inhibitor, partial curve, poor fit] | 
52 | COc1ccc(NC(=O)C2(C)CCN2C(=O)c2ccccc2CCc2ccccc2)cc1OC (stereo not drawn) | inconclusive: 12.6 µM [inhibitor, single point] | 
53 | O=C(O)c1ccccc1NS(=O)(=O)c1ccc(N/N=C/c2ccc(O)c(O)c2)c([N+](=O)[O-])c1 | inconclusive: 12.6 µM [inhibitor, partial curve, poor fit] | 
54 | Cc1ccc(C(=O)N2CCN(c3ccc([N+](=O)[O-])c(NCc4ccco4)c3)CC2)cc1 | inconclusive: 8.91 µM [inhibitor, partial curve, poor fit] | 
55 | CCn1c(=O)cc(SCC(=O)Nc2cc(Cl)ccc2OC)c2ccccc21 | inactive | 
56 | CC(=O)N1CCN(S(=O)(=O)c2cccc(C(=O)OCc3ccc(C(C)(C)C)cc3)c2)CC1 | inconclusive: 28.2 µM [inhibitor, single point] | 
57 | S=C(Nc1ccccn1)Nc1ccccc1Cl | active: 6.31 µM | 
58 | Cc1[nH][nH]c(=O)c1N=Nc1ccccc1 | inconclusive: 12.6 µM [inhibitor, single point] | 
59 | C=CCc1cc(Cl)ccc1OCCNCCCOC | inconclusive: 3.98 µM [inhibitor, partial curve, poor fit] | 
60 | CCOc1ccc(NC(=O)CCNS(=O)(=O)c2ccc3c(c2)c(=O)n(C)c(=O)n3C)cc1 | inconclusive: 2.51 µM [inhibitor, partial curve, poor fit] | 
61 | COc1ccc(C=NNC(=S)Nc2ccc(F)cc2)cc1OC | inconclusive: 1.41 µM [inhibitor, full curve, poor fit] | 
62 | S=c1[nH]nc(COc2ccccc2)n1/N=C/c1cccc(Br)c1 | inactive | 
63 | Cc1ccc(N/N=C(/Sc2nnnn2-c2ccccc2)C(=O)c2ccccc2)cc1 | inconclusive: 28.2 µM [inhibitor, single point] | 

— PubChem BioAssay AID624418 (National Center for Advancing Translational Sciences (NCATS), 2012)
